Measured values as given in PubChem BioAssay AID588689 (Southern Research Specialized Biocontainment Screening …, 2011).
Values joined by “and” are separate entries in the source; they are usually repeats but may differ in a detail not shown here. Identical values can stand only once. Among all 340,000 compounds or so, about 1,000 (0.29%) were called active. The inconclusive results got no clear call from the source; some entries with a clear call stand among them for comparison. Rule as the data show it: inconclusive = inhibition above about 29% without an active follow-up result; inactive = below that.

molecular target: Genome polyprotein (Dengue virus type 2 (strain 16681-PDK53)) (UniProt P29991); assay: Dengue-2 NS5 methyltransferase inhibitors, primary screen, biochemical, confirmation dose response (AID 588689); settings: Dengue-2 NS5 methyltransferase capping enzyme assay, at 25 µM, hits give high values

Structure (SMILES) | inhibition
N=c1c(S(=O)(=O)c2ccc(Cl)cc2)cc2c(=O)n3ccccc3nc2n1C1CCCC1 | inconclusive: 103%
CC1=C(C(=O)N2CCOCC2)C(c2cc(C)cs2)NC(=O)N1 (centres undefined) | inconclusive: 71.7%
CC(NC(=O)C1CCC1)c1ccc(Cl)cc1 (centres undefined) | inactive: -3.24%
Cc1ccc(C2C3CN(C(C)C)CC=C3C(C#N)=C(N)C2(C#N)C#N)cc1 (centres undefined) | inconclusive: 161%
O=C1NC(=O)/C(=C/c2ccccc2Oc2ccc(Cl)cc2)S1 | inactive: -4.16%
CCOC(=O)[C@H]1[C@H]2COc3ccccc3[C@@H]2N2C(=O)CN(Cc3ccc(C)cc3)C(=O)[C@@]12C | inconclusive: 48.9%
CC(=O)Nc1ccc(NC(=O)C(C)OC(=O)/C(C#N)=C/c2ccc(N(C)C)cc2)cc1 (centres undefined) | inconclusive: 147%
Cc1cccc(N2C(=O)c3ccc(Br)cc3C2=O)n1 | inactive: -2.38%
CC(C)OC(=O)C(C#N)c1nc2ccccc2nc1N1CCN(Cc2ccccc2)CC1 (centres undefined) | inconclusive: 42.8%
CCOc1ccc2noc3c2c1C(=O)c1ccccc1-3 | inconclusive: 139%
CN(C)/C=C1\SC(=S)N(c2ccc(Br)cc2)C1=O | inconclusive: 118%
Cn1c(=O)c(NCCc2ccccc2)c2c3c(cccc31)C(=O)c1ccccc1-2 | inconclusive: 71.3%
COc1ccc(N2C(=O)C(Cl)=C(Oc3cccc(OC)c3)C2=O)cc1 | inconclusive: 53.4%
COc1ccccc1N=Nc1c(O)[nH]c2ccc(Br)cc12 | inconclusive: 31.9%
COC(=O)CCC(=O)OC1(C)C(=O)C2=CN(CCc3ccccn3)C(c3ccc(OC)cc3)=CC2=C(Br)C1=O (centres undefined) | inconclusive: 48.3%
Cc1ccc(-n2nc(C)c(Sc3ccccc3[N+](=O)[O-])c2N)cc1 | inconclusive: 139%
CCOC(=O)NC(=O)/C(C#N)=C\Nc1sccc1C(=O)OC | inconclusive: 30.3%
COc1ccc(C(=O)N2CCC(C(=O)Nc3ccc4c(c3)OCO4)CC2)cc1 | inactive: -4.42%
Cc1ccccc1C(=O)Nc1c2c(nn1C(C)(C)C)CS(=O)(=O)C2 | inactive: -5.2%
Cc1ccc(Cn2c(=N)c(C(=O)NC3CCCC3)cc3c(=O)n4ccccc4nc32)cc1 | inconclusive: 53.5%
Nc1ccc2nc3c(=O)[nH]c(=S)[nH]c3nc2c1 | inconclusive: 194%

Structure (SMILES) | inhibition
O=C1/C(=C/c2ccc(N3CCOCC3)o2)SC(=Nc2ccccc2)N1CCc1c[nH]c2ccccc12 | inconclusive: 115%
CCNc1cccc2c1C(=O)N(C)C2=O | inconclusive: 44.5%
COC(=O)Cc1cc(=O)n2[nH]c(C)nc2n1 | inconclusive: 40.8%
CCOc1ccc(C2C=C(c3ccc(C)cc3)Nc3nnnn32)cc1 (centres undefined) | inconclusive: 168%
CCCCCn1c(=N)c(S(=O)(=O)c2ccc(Br)cc2)cc2c(=O)n3cccc(C)c3nc21 | inconclusive: 86.2%
COc1cc(/C=C2\SC(=S)N(C(C(=O)O)c3ccccc3)C2=O)ccc1O (centres undefined) | inconclusive: 60.6%
CCOc1ccc(N=Cc2ccc(N(C)C)cc2)c(O)c1 | inconclusive: 64.5%
O=C(Nc1ccccc1Cl)c1ccccc1 | inactive: 1.49%
Cc1cc(C)c(C(=O)c2ccccc2)c(C)c1 | inactive: -9.32%
O=C(Nc1ccccc1C(=O)Nc1ccccc1C(=O)O)c1ccccc1 | inactive: 2.59%
CCN(CC)c1ccc(/C=C(/C#N)c2nc3ccccc3[nH]2)c(OC(C)C)c1 | inconclusive: 137%
Nc1ccc2cc3[nH]c4cc(N)ccc4c3nc2c1 | inconclusive: 43.7%
CN1C(=O)/C(=C/c2ccc(-c3ccccc3[N+](=O)[O-])o2)SC1=Nc1ccc(Cl)c(C(=O)O)c1 | inactive: 24.5%
N=c1c(S(=O)(=O)c2ccc(Cl)cc2)cc2c(=O)n3ccccc3nc2n1Cc1cccnc1 | inconclusive: 49.4%
Cc1ccc(Cn2c(=N)c(S(=O)(=O)c3ccc(Br)cc3)cc3c(=O)n4ccccc4nc32)cc1 | inconclusive: 35.5%
O=C1c2ccccc2S(=O)(=O)N1CC(O)Cn1ccc2ccccc21 (centres undefined) | inconclusive: 82.5%
COC(=O)C1CSc2[nH]c(=O)sc2C1c1ccccc1 (centres undefined) | inconclusive: 44.8%
CC1=NN(c2ccccc2)C(=O)C1C(=S)SC1CC(=O)NC1=O (centres undefined) | inactive: 26.3%
COc1cc(C2C(C#N)=C(N)Oc3c2ccc2ccccc32)ccc1OCC(=O)Nc1ccccc1C (centres undefined) | inconclusive: 45.2%
Cc1ccc(C)c(N2CCN(C(=O)C3CCCN(S(=O)(=O)c4c(C)noc4C)C3)CC2)c1 (centres undefined) | inactive: -2.75%
O=C(NCc1ccccc1Br)c1cccc2c1C(=O)c1ccc(N3CCC(Cc4ccccc4)CC3)cc1S2(=O)=O | inconclusive: 31.4%

Structure (SMILES) | inhibition
OCCNCc1cccc(-c2ccccc2)c1O | inconclusive: 28.7%
Cc1ccc(CS(=O)Cc2ccc(C(=O)NCc3ccc4c(c3)OCO4)o2)cc1 (centres undefined) | inactive: -13.8%
CC1CCCCN1CCCNC(=O)CN1C(=O)CSc2ccc(S(=O)(=O)N3CCOCC3)cc21 (centres undefined) | inactive: 0.89%
C#CCN1C(=O)S/C(=C/C=C/c2ccc(N(C)C)cc2)C1=O | inconclusive: 73.1%
COc1ccc([C@H]2N[C@]3(CCCN(Cc4ccc(Cl)cc4)C3=O)[C@H]3C(=O)N(Cc4ccccc4)C(=O)[C@@H]23)cc1 | inactive: -3.98%
Cc1c(N=c2scc(-c3ccccc3)n2C)c(=O)n(-c2ccccc2)n1C | inactive: -7.91%
CCOC(=O)C1C(=O)NC(SCC(N)=O)=C(C#N)C1c1ccccc1OCC (centres undefined) | inconclusive: 42.4%
CN1/C(=C\C=C(/C#N)C(=O)Nc2ccc(Cl)cc2)C(C)(C)c2ccccc21 | inconclusive: 31.7%
O=C(NCCc1ccc(F)cc1)c1cccc2c1C(=O)c1ccc(N3CCC(Cc4ccccc4)CC3)cc1S2(=O)=O | inconclusive: 97.2%
CCN(CC)Cc1cc(C(C)=O)ccc1O | inactive: -1.36%
COc1cccc(C(=S)N2CCOCC2)c1OS(=O)(=O)c1ccc(Cl)cc1 | inactive: 1.61%
Cc1ccsc1C=Nc1ccc(O)cc1 | inconclusive: 82.8%
CC(=O)OCCn1c2nc(=O)[nH]c(=O)c-2nc2cc(C)c(C)cc21 | inconclusive: 70.6%
CCN1CCN(Cc2c(O)ccc3c2O/C(=C\C=C\c2ccccc2OC)C3=O)CC1 | inconclusive: 151%
CN1c2ccc(C=O)c3c(C=O)ccc(c23)N(C)C1(C)C | inconclusive: 121%
COc1ccc(-c2ccc3c(c2)S(=O)(=O)c2cccc(C(=O)NCc4cccc(OC(F)(F)F)c4)c2C3=O)cc1OC | inconclusive: 167%
Cc1ccc(C2C(C(=O)c3cccs3)=C(O)C(=O)N2c2nnc(C)s2)cc1 (centres undefined) | inconclusive: 31.1%
O=C(CCc1nc(-c2ccc(F)cc2)no1)NCc1ccccc1CN1CCOCC1 | inconclusive: 145%
CCN1C(C)=C(C)S/C1=C1\SC(=S)N(C2CCCCC2)C1=O | inconclusive: 41.7%
O=S(=O)([N-]c1nc2ccccc2nc1-[n+]1ccc(-c2ccncc2)cc1)c1ccccc1 | inconclusive: 159%
CCN1/C(=C2/SC(=S)N(NC(C)=O)C2=O)Sc2ccc(Cl)cc21 | inconclusive: 59.3%

Structure (SMILES) | inhibition
Cc1cccc(-n2c(O)c(C=Nc3c(C)n(C)n(-c4ccccc4)c3=O)c3ccccc3c2=O)n1 | inconclusive: 81.3% and inconclusive: 72%
CCOc1ccc(Cn2c3ccc(OC)cc3c3nc4ccccc4nc32)cc1OC | inconclusive: 71%
NC(=O)c1ccc(NC(=O)COC(=O)c2c3c(nc4ccccc24)/C(=C\c2ccc4c(c2)OCO4)CCC3)cc1 | inconclusive: 83%
CN(C)c1ccc(/C=C/C(=O)c2c(O)c3ccccc3oc2=O)cc1 | inconclusive: 198%
Brc1ccc(-c2cnnc(N3CCCC3)n2)cc1 | inconclusive: 77.3%
O=C1C(Cl)=C(N2CCN(c3ccccc3[N+](=O)[O-])CC2)C(=O)c2ccccc21 | inactive: 3.21%
CN1CCc2c(sc3c2C(=O)NC(c2ccc(-c4cccc(Cl)c4)o2)N3)C1 (centres undefined) | inconclusive: 138%
COc1cc(/C=C2/C(=O)NN(c3ccc(C)c(Cl)c3)C2=O)cc([N+](=O)[O-])c1O | inactive: 69.8%
CC1=C(C#N)C(=O)OC(C)(C)C1 | inconclusive: 47.9%
O=C(CN1CCCCC1)Nc1cccc(Oc2ccccc2)c1 | inconclusive: 152%
Cc1ccc(N2C(=O)c3ccc(C(=O)O)cc3C2=O)cc1C | inactive: 9.14%
CC(=O)Oc1cccc(N2C(=O)CC(Nc3ccc(N4CCOCC4)cc3)C2=O)c1 (centres undefined) | inconclusive: 77.6%
O=c1[nH]c2ccc([N+](=O)[O-])cc2nc1/C=C(\O)c1ccccc1 | inconclusive: 34%
COc1ccc2c(C#N)c3ccccn3c2c1 | inconclusive: 48.4%
CN1CC=C2C(C#N)=C(N)C(C#N)(C#N)[C@H](c3cccc(Cl)c3)C2C1 (some centres undefined) | inconclusive: 34.6%
CCCCCCN1C=CC(=C/C=C(\C#N)C(=O)OCC)C=C1 | inconclusive: 141%
O=C1c2cccc3c(O)ccc(c23)C(=O)N1Cc1ccccc1 | inconclusive: 179%
CCCCOc1ccc(C2OC34CCCCC3C(C#N)(C#N)C2(C#N)C(=N)O4)cc1 (centres undefined) | inconclusive: 78.9%
CC(=O)Nc1ccc(N=Cc2c(O)c3ccccc3oc2=O)cc1 | inconclusive: 34.5%
O=C/C(=C\Nc1ccccn1)c1nc2ccccc2o1 | inconclusive: 43.4%
CN1C(=O)C2C3c4ccccc4C(c4ccccc43)[C@@H]2C1=O (some centres undefined) | inactive: -1.31%
